The source of these data is PMC4336329 (PLoS ONE, 2015).

The campaign covered roughly 310,000 compounds. About 2,200 (0.71%) showed an effect of 50% or more. Effects have a minus sign here. The list shows a part of the results.

This assay deals with human ether-à-go-go-related gene (hERG) potassium channel (human, UniProt Q12809). The assay can be described thus: primary screen, population patch clamp on CHO cells stably expressing hERG.
Chain of human ether-à-go-go-related gene (hERG) potassium channel (Q12809 whole entry, looked up): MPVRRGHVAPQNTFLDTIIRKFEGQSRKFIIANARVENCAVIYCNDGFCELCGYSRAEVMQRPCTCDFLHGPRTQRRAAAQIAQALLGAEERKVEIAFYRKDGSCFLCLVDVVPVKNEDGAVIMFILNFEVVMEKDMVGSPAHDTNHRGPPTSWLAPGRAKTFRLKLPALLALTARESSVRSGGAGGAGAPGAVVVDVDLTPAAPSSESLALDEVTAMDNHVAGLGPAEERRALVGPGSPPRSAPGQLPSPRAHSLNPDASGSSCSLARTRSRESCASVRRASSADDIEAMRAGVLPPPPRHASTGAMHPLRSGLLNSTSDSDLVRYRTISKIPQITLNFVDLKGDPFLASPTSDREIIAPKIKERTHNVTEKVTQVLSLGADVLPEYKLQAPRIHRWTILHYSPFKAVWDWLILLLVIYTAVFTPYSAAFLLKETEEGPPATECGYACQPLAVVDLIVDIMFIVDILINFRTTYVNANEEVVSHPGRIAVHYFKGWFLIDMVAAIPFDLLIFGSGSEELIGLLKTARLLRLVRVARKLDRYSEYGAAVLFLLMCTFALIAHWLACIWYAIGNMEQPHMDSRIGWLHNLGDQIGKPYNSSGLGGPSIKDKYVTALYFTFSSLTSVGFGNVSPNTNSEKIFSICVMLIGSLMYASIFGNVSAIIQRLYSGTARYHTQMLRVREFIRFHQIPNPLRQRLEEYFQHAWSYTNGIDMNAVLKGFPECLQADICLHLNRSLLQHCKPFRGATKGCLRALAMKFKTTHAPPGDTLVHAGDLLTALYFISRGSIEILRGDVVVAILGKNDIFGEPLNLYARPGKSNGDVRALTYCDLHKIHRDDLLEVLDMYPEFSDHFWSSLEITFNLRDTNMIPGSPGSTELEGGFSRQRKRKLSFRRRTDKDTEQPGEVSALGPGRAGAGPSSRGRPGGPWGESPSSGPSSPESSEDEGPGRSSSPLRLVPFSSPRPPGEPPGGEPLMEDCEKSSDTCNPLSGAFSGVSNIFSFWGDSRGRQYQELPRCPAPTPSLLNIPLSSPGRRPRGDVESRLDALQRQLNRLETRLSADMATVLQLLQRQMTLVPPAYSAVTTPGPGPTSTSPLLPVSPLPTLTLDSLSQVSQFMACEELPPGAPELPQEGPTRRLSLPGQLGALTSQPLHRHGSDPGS
On to `Cc1cc(S(=O)(=O)N2CCCC2)ccc1OCC(=O)N1CCOCC1`, for which the “hERG current change (%, negative = inhibition) at 1uM” value amounted to 10.6%.

For `CCCCCCC#Cc1ccc2c(c1)COc1c3ccccc3nn1-2`, the “hERG current change (%, negative = inhibition) at 1uM” value stood at 11%.

With `COc1ccc(C(=O)C[n+]2cccc3cc(OC)ccc32)cc1.[Br-]`, the “hERG current change (%, negative = inhibition) at 1uM” value came out at 8.79%. As for `N#C/C(=N\Nc1ccccc1F)C(=N)N1CCCCC1`, the figure is -4.33%.

Consider `CCOC(=O)/C(C#N)=C\c1ccc(CC)s1`, for which the “hERG current change (%, negative = inhibition) at 1uM” value is recorded as -1.09%.

For the molecule `O=C(CCN1C(=O)c2ccncc2C1=O)NCc1ccc(Cl)cc1`, the “hERG current change (%, negative = inhibition) at 1uM” value is -22%. For `Cn1ccsc1=NC(=O)c1ccc(CS(C)(=O)=O)cc1` the value was 14.3%; for `COC1(OC)N=C(N)C2(C#N)C(c3ccc(C)cc3)C12C#N` (stereo not shown), 10.3%. For `Nc1cccc(C2=Nc3cccc4cccc(c34)N2)c1` the value was 3.65%. As for `COc1cccc(OC(=O)N2CCOCC2)c1`, the figure is 9.6%; as for `COc1ccc(-n2c(N)cc(=O)[nH]c2=O)cc1`, 7.51%.

For the molecule `Cc1cccc(N(C(=O)Cc2cccs2)C(C(=O)NCc2ccco2)c2ccncc2)c1` (stereo not shown), the “hERG current change (%, negative = inhibition) at 1uM” value is 8.56%. As for `CC(C)Oc1cccc(C(=O)C2CCCN(Cc3cccn3-c3cccnc3)C2)c1` (stereo not shown), the figure is 12.4%; as for `CCn1cc(C(=O)NCCc2ccc(OC)c(OC)c2)c(=O)c2cc(S(=O)(=O)N3CCOCC3)ccc21`, 8.59%; as for `Cn1c(C(=O)OCC(=O)NCc2ccc(F)cc2)cc2occc21`, -6.25%. For `CC(C)(C)c1ccc2c(c1)OC(C(=O)N/N=C\c1ccncc1)CO2` (stereo not shown) the value was 9.54%; for `CSc1ccccc1OCc1cc(C(=O)NCCC2=CCCCC2)no1`, -4.18%. For `COc1cc(CN(C)Cc2nc3cc(C(F)(F)F)ccc3c(=O)[nH]2)ccc1OC(F)F`, the “hERG current change (%, negative = inhibition) at 1uM” value is listed as -2.58%.

In the case of `COc1ccccc1CN(C)C(=O)c1ccc(S(=O)(=O)NCc2ccco2)cc1`, the “hERG current change (%, negative = inhibition) at 1uM” value is given as 9.37%.

`CN1CCN(C(=O)CN(C)S(=O)(=O)c2ccc3ccccc3c2)CC1`: the “hERG current change (%, negative = inhibition) at 1uM” value worked out at 9.93%.

For `Cn1cnc2c1c(=O)n(Cc1ccc(Cl)cc1Cl)c(=O)n2C`, the “hERG current change (%, negative = inhibition) at 1uM” value is reported as 14.4%.

As to `COc1ccc(C(=O)NCC2CCCCC2)cc1S(=O)(=O)N1CCCC1`, the “hERG current change (%, negative = inhibition) at 1uM” value is -3.08%. As for `Cc1ccccc1NC(=O)c1c2c(nc3ccccc13)CCC2`, the figure is 7.88%; as for `COc1cc(SC)ccc1C(=O)NCCCn1ccnc1`, -0.336%; as for `Cc1nn(Cc2ccccc2)c(C)c1/C=N/NC(=O)c1ccccc1O`, 1.67%. As for `CC(C)CCCN1CCN=C1N(C)C`, the figure is 12.5%. As for `CCCOc1ccc(S(=O)(=O)NCc2ccc(OC)cc2)cc1`, the figure is 2.08%; as for `CC(C)NC(=S)N(CCc1ccncc1)C(C)C`, -0.63%. `CCN1CCN(c2ccc([N+](=O)[O-])c(Sc3nc4ccccc4[nH]3)c2)CC1`: the “hERG current change (%, negative = inhibition) at 1uM” value was -43.8%.

Consider `CN(C)N1C(N)=C(C#N)C(c2cccs2)C2=C1CCCC2=O` (stereo not shown), for which the “hERG current change (%, negative = inhibition) at 1uM” value came to 9.76%. For `O=S(=O)(c1ccccc1)N(Cc1ccccc1)c1ccccn1` the value was 10.3%; for `CCOCCOC(=O)c1[nH]c2c(c1C)C(=O)CC(c1ccc(OC)c(OC)c1)C2` (stereo not shown), 5.15%; for `CC(C)CNC(=O)C(=O)NNC(=O)c1ccco1`, 16.6%.

Regarding `COc1cccc(-c2nnc(-c3ccccc3[N+](=O)[O-])o2)c1`, the “hERG current change (%, negative = inhibition) at 1uM” value was found to be 10.8%. As for `Cc1ccc(C2C(C(=O)c3cc4ccccc4o3)=C(O)C(=O)N2c2cc(C)on2)cc1` (stereo not shown), the figure is 15.4%. For `CCc1ccccc1NC(=S)N1CCC(NC(=O)c2ccc(OC)cc2)CC1` the value was -3.91%; for `Cc1ccc(CN2CCN(C(=O)CC(C)C)CC2)cc1`, 6.93%; for `O=C1CC(c2ccc(F)c(Br)c2)C2=C(CCCC2=O)N1` (stereo not shown), 2.31%. As for `COc1cc2c(cc1OC)C(C)N(C(=S)Nc1ccccc1)CC2` (stereo not shown), the figure is 0.862%. For `O=C(O)CC(NC(=O)c1ccncc1)c1ccccc1` (stereo not shown), the “hERG current change (%, negative = inhibition) at 1uM” value is on record as 7.75%. With `Cc1nc(SC(C)C(=O)NCC2CCCO2)c2cc(-c3ccccc3)sc2n1` (stereo not shown), the “hERG current change (%, negative = inhibition) at 1uM” value was -2.98%.

Consider `COc1ccc(-c2cn(-c3cccc(C)c3)c(=O)[nH]2)cc1OC`, for which the “hERG current change (%, negative = inhibition) at 1uM” value amounted to 11%. For `CC(=O)C(c1ccccc1)C(c1ccccc1)C(C)[N+](=O)[O-]` (stereo not shown) the value was 12.2%; for `CCn1c(C)c(C)c2cc(C(=O)NCCCN3CCCCCC3)ccc21`, 1.29%; for `O=Cc1c(-[n+]2ccccc2)nc([O-])n1-c1ccccc1`, 6.5%.

Regarding `CCC(=O)NC(c1cc(Cl)c2ccccc2c1O)C1CC1` (stereo not shown), the “hERG current change (%, negative = inhibition) at 1uM” value stood at 10.4%.
